PubChem BioAssay AID1159614 (National Center for Advancing Translational Sciences (NCATS), 2016)
About 65 (0.1%) of roughly 45,000 compounds were called active. The call rests on the fitted dose curve; in most records, active means well fitted activation curve with a large enough effect; inconclusive means small, poorly fitted or top-dose-only effect; inactive means no such curve, though single readings can be large or run the other way. Some of the results follow.

These compounds were tested against Galactocerebrosidase (Homo sapiens) (UniProt P54803) (assay: A Novel Cell-Based Assay to Identify Small Molecules for B -Galactocerebrosidase). Details: 145M-Twi-hGALC-G270D cells (Twitcher mouse brain line with human GALC G270D), HMU-beta-Gal fluorescence, 48 h; series mostly up to 57.5 µM; activation: at the top concentration.
Summary of the method: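 Brain-derived Twitcher mouse 145M-Twi cells stably expressing human GALC-G270D or wild-type GALC, treated live, then residual GALC activity read by fluorescence of HMU-b-Gal substrate (0.1 mM final) in citrate-phosphate buffer pH 5.2 with sodium taurocholate. Signal increase indicates enhancement.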
Further: 0% is about no effect; nearly all actives have a fitted effect of over 65% in size.

UniProt P54803, sequence (P54803 whole entry, looked up): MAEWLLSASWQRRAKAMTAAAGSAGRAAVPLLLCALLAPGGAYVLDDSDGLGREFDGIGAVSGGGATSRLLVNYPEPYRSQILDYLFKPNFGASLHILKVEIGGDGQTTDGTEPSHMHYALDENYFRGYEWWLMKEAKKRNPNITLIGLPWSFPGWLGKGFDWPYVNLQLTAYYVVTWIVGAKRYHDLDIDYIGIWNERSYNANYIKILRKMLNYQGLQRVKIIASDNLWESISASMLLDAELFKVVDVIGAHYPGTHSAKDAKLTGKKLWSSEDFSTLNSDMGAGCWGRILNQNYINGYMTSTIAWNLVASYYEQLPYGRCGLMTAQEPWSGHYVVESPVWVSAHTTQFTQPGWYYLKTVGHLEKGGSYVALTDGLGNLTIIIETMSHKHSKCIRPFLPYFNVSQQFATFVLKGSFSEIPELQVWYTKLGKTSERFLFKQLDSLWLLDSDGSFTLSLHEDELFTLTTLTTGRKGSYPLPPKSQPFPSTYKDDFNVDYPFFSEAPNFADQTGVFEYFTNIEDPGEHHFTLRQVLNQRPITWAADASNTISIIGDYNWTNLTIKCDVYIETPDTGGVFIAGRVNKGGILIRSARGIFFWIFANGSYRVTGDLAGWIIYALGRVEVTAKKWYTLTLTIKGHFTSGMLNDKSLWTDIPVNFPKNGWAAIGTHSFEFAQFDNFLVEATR

activation, inactive:
O=C(Nc1nnc(S(=O)(=O)N2CCCC2)s1)c1ccc(F)cc1 -3.06%
COc1ccc(OC)c(-n2cnc3cc(C(=O)NC4CCCC4)ccc32)c1 -19.3%
O=C(NC1CC(=O)N(c2ccccc2)C1)c1cc2ccccc2o1 (stereo not drawn) -5.18%
O=C(Nc1ccc(Cl)cc1)Nc1ccc(Cl)c(Cl)c1 -16.4%
Cc1oc(-c2ccccc2)nc1CNS(=O)(=O)c1ccc(Cl)cc1 -2.73%
CCCCOc1ccccc1NC(=O)Cn1c(-c2cncs2)nc2ccccc21 -1.35%
CCOC(=O)c1cccc(NC(=O)c2cc3c(=O)n(Cc4cccnc4)ccc3nc2C)c1 -17.9%
COc1ccc(Nc2nc3c(S(=O)(=O)c4ccccc4)nnn3c3ccc(Cl)cc23)cc1OC -12.2%
Cc1cccc(-c2nc(N3CCN(c4ccc(F)cc4)CC3)c3ccccc3n2)c1 2.43%
CN1CCN(Cc2c(O)ccc3cc(-c4ccccc4)c(=O)oc23)CC1 -26.6%
CCOc1ccc(-c2cc(C(=O)NCc3ccc(OC)cc3)c3c(-c4ccc(F)cc4)[nH]nc3n2)cc1 -15.9%
CCOC(=O)c1cccc(Nc2nc(C(=O)OCC)nc3ccccc23)c1 29.3%
CCCCCn1c(=O)[nH]c2cc(C(=O)N3CCN(c4ccccc4F)CC3)ccc2c1=O -13.4%
Cc1ccc(NC(=O)c2cc(-c3cccs3)on2)cc1C -14%
CCN1CCN(CCCNC(=O)c2cnn(-c3ccc(C)cc3)c2C2CCN(C(=O)OC(C)(C)C)CC2)CC1 -12.2%
CCOC(=O)c1[nH]c2ccccc2c1NC(=O)c1ccc(OCC)cc1 -17.3%
Cc1ccc(-n2ncc3c(NCCCn4ccnc4)ncnc32)cc1 -17.9%
COc1cccc(-n2c(SCC(=O)Nc3ccc(F)cc3F)nc3c([nH]c4ccccc43)c2=O)c1 -16.2%
c1csc(-c2nc3ccccn3c2Nc2ccc3c(c2)OCCO3)c1 -0.908%
COc1ccc(S(=O)(=O)NCCS(=O)(=O)N2CCN(c3ccccc3F)CC2)cc1 -41.2%
Cc1nnc(N2C(=O)c3oc4ccccc4c(=O)c3C2c2ccc(F)cc2)s1 (stereo not drawn) -14.8%
Cc1c(C(=O)NCc2ccc(F)cc2)sc2nc(-c3ccccc3)cn12 1.64%
CCOc1cc(-c2ccc(OC(=O)c3ccc(Cl)cc3)c(OC)c2)cc(=O)c2c(C)oc(C)c12 -7.08%
COC(=O)c1c(-c2ccc(Cl)cc2)noc1N1CCN(c2cccc(OC)c2)CC1 -10.3%
COc1ccc(CCNC(=O)c2ccc(Cn3c(=O)c4ccccc4n(Cc4ccccc4Cl)c3=O)cc2)cc1OC 2.28%
CCOc1ccccc1C(=O)NCC(c1ccc(N(C)C)cc1)N1CCc2ccccc21 (stereo not drawn) -9.32%
Oc1c(C(c2ccc(Cl)cc2)N2CCCC2)sc2nc(-c3ccco3)nn12 (stereo not drawn) -12.6%
COc1cc(-c2nc3cccc(C)n3c2Nc2ccc3c(c2)OCCO3)ccc1O -16.2%
COc1ccccc1CNC(=O)c1cccc(NC(=O)N2CCSc3ncccc32)c1 -12.5%
CC(=O)c1ccc(N2CCN(c3ncnc4onc(-c5ccc(Cl)cc5)c34)CC2)cc1 -3.86%
CCCCOC(=O)c1ccc(NC(=O)CSc2nc3c(c(=O)[nH]2)CCC3)cc1 -15.1%
O=S(=O)(c1ccccc1)c1nnn2c1nc(NCc1ccccc1)c1cc(Cl)ccc12 -10.6%
CC(C)c1ccc(NC(=O)CCS(=O)(=O)c2ccc3c(c2)CC(=O)N3C)cc1 -6.25%
CCCCCn1cc2c(c1-c1ccccc1Br)c(=O)n(C)c(=O)n2C -6.87%
O=C(Nc1cccc(F)c1)c1oc2ccccc2c1NC(=O)C12CC3CC(CC(C3)C1)C2 -19%
Cc1ccc2occ(CC(=O)Nc3ccc(S(=O)(=O)N4CCC(C)CC4)cc3)c2c1 -16.8%
Cc1nc2nc(C)c(CCC(=O)NCc3ccccc3)c(C)n2n1 -15.2%
CCOc1ccc2ncc3c(-c4cccc(OC)c4)nn(-c4ccccc4)c3c2c1 0.102%
CCOCCn1ccc2c(OCC(=O)Nc3cccc(F)c3)cccc2c1=O -12.5%
CCOc1cc(-c2ccc(OC(=O)c3ccccc3)c(OC)c2)cc(=O)c2c(C)oc(C)c12 -6.27%
CCOc1ccccc1CNCCSc1nnnn1C -11.6%
COc1cccc(Cc2nc3ccccc3nc2SCC(=O)Nc2cc(OC)ccc2OC)c1 7.47%
CCC(C)NC(=O)Cn1c(=O)n(Cc2ccc(C(=O)NCc3ccc(C)cc3)cc2)c(=O)c2ccccc21 (stereo not drawn) -10.5%
COc1ccc(S(=O)(=O)N2CCC(C(=O)Nc3cc(C(F)(F)F)ccc3Cl)CC2)cc1 -11.6%
O=c1[nH]c(=O)n([C@H]2C[C@H](O)[C@@H](CO)O2)cc1F -16%
COc1ccc(OC)c2sc(N3CCN(C(=O)C4COc5ccccc5O4)CC3)nc12 (stereo not drawn) -6.85%
Cc1ccc(C2c3c(oc4ccccc4c3=O)C(=O)N2c2nnc(C)s2)cc1 (stereo not drawn) -16.3%
COc1ccc(C)cc1Nc1ncnc2c1c(-c1ccccc1)cn2-c1ccc(C)cc1 -10.5%
O=c1c2sc3ccccc3c2n(Cc2ccccc2)c(=O)n1CCc1ccccc1 -4.94%
CCN(CCCNC(=O)CN1N=C(c2ccccc2)CCC1=O)c1ccccc1 2.53%
CC(C)CCNC(=O)C(Cc1ccccc1)NS(=O)(=O)c1ccc2c(c1)c(=O)n(C)c(=O)n2C (stereo not drawn) -9.4%
Cc1ccc(S(=O)(=O)C(CNC(=O)COc2ccccc2)c2ccco2)cc1 (stereo not drawn) -21.8%
CCCN(CCC)C(=O)Cn1c(=O)n(CCCCCC(=O)NCc2ccccc2Cl)c(=O)c2sccc21 -5.78%
CCCOc1ccc(-c2cc(C(F)(F)F)c(C#N)c(SCCC(=O)O)n2)cc1 -9.62%
Cc1ccc(CNC(=O)CSc2nc3n[nH]c(C)c3c(=N)n2-c2ccccc2Cl)cc1 -11.6%
O=C(Nc1ccccc1C(=O)OCc1cc(=O)n2nc(C3CC3)sc2n1)c1cccc(F)c1 -9.57%
CS(=O)(=O)N1CCc2cc(C(=O)Nc3ccc(C(F)(F)F)cc3)ccc21 -7.12%
Cc1cc(C)n(-c2nc3cc(Cl)ccc3nc2N2CCN(c3ccccc3F)CC2)n1 -6.01%
CCOCCCn1c(SCC(=O)Nc2ccccc2Cl)nc2c(oc3ccccc32)c1=O -15.8%
Cc1ccccc1OCCCCn1nnc2sc3c(c2c1=O)CCC(C)C3 (stereo not drawn) -19%
Cc1ccc(CCNC(=O)c2ccc3c(c2)nc2n3CCOC2)cc1 0.206%
Cc1nc2sccn2c(=O)c1S(=O)(=O)Nc1cc(C(F)(F)F)ccc1Cl -13.3%
CN1C(=O)C2(SCC(=O)N2c2ccc(Cl)cc2)c2ccccc21 (stereo not drawn) -15.4%
COCCNC(=O)c1ccc(-c2nc(CS(=O)(=O)c3ccccc3)c(C)o2)cc1 -16.7%
COc1ccccc1CNC(=O)CSc1nnc(C)c2c(C)n(-c3ccccc3)nc12 -17.1%
O=C(Nc1ccc(F)c(Cl)c1)N1CCC(CN2CCOCC2)CC1 0.509%
CCc1nn2c(=O)c(S(=O)(=O)Nc3ccc(C(C)C)cc3)c(C)nc2s1 -7.98%
CNNCc1ccc(C(=O)NC(C)C)cc1 -7.81%
CCc1ccc(-n2nc3ccc(NC(=O)COc4ccc(OC)cc4)cc3n2)cc1 -24.8%
Nc1ccc(C(=O)Oc2ccccc2)c(O)c1 -11.4%
O=C(CSc1nc2c(c(=O)[nH]1)CN(Cc1ccc3c(c1)OCO3)CC2)Nc1ccccc1Cl -22%
CCOc1ccc(NC(=O)CSc2nc3ccsc3c(=O)n2CCCCCC(=O)O)cc1 -8.6%
CCOc1ccc(NCc2nc3ccccc3n2CCOc2ccc(C)cc2)cc1 -2.37%
CC(=O)N1CCCc2cc(S(=O)(=O)N3CCCC(C(=O)NCc4ccc(C)cc4)C3)ccc21 (stereo not drawn) -21.9%
Cc1ccc2oc(C(=O)N(Cc3sccc3C)C3CCS(=O)(=O)C3)c(C)c2c1 (stereo not drawn) -6.53%
CCOc1ccc(Nc2c(S(=O)(=O)c3ccc(C)cc3)cnc3ccc(F)cc23)cc1 -2.28%
COc1cccc(CNC(=O)c2nc(Cn3nc(C)c(Br)c3C)no2)c1 -2.35%
COc1ccccc1CNC(=O)C(=O)NCC(c1cccs1)S(=O)(=O)c1cccs1 (stereo not drawn) -31.1%
COc1ccc(-n2c(=O)c3c4c(sc3n(C)c2=O)CN(C(C)=O)CC4)cc1 -9.17%
O=c1cc(-c2ccccc2)n2c(SCc3ccccc3Cl)nnc2[nH]1 -11.4%
C[N+]1(C)CCC(=C(c2ccccc2)c2ccccc2)CC1 -18.9%
CCCCN(C)C(=O)CSc1nc2ccccc2nc1Cc1ccc(C)cc1 16.8%
CCOc1ccc(NC(=O)c2cc(S(=O)(=O)N3CCN(c4ccccc4F)CC3)ccc2F)cc1 -8.55%
Cc1ccc2[nH]c(=O)c3cc(C(=O)NC4CCC(C)CC4)sc3c2c1 (stereo not drawn) -21.4%
CC(C)OCc1cc(CN2CCN(c3cccc(C(F)(F)F)c3)CC2)c(O)c2ncccc12 -20.1%
Cc1ccc(CCNC(=O)CN(c2ccc(C)cc2)S(=O)(=O)N(C)C)cc1 -27.6%
Cc1c(Cl)cccc1NC(=O)CSc1nc(=O)n(Cc2ccco2)c2c1CCC2 9.73%
COc1ccccc1C(=O)Nc1nnc2n1CCS2 -23.5%
COc1cccc2c1cc1c(=O)n(CC(=O)NCc3ccco3)nc(C)n12 7.9%
Cc1cccc(N(C)S(=O)(=O)c2cc3[nH]c(=O)c(=O)[nH]c3cc2C)c1 -2.24%
CCCCC(=O)Nc1nnc(S(=O)(=O)N(C)Cc2ccccc2)s1 -18%
CCCCCNC(=O)C1CCC(Cn2c(=O)c3sccc3n(CC(=O)NCc3cccc(OC)c3OC)c2=O)CC1 (stereo not drawn) -3.85%
CN(C)c1ccc(CNC(=O)C2CCN(Cc3cc4ccccc4n3Cc3ccccc3)CC2)cc1 -9.48%
CCSc1nnc2c(n1)OC(c1ccc(OC)c(OC)c1)N(C(C)=O)c1ccccc1-2 (stereo not drawn) -5.33%
COc1ccc(Cl)cc1NC(=O)CSc1ccc2nnc(CCNS(=O)(=O)c3ccccc3)n2n1 -6.45%
Cc1ccc(-c2noc(CSc3nnc(C)n3-c3ccc(C)c(C)c3)n2)cc1 2.04%
NS(=O)(=O)c1cc2c(cc1Cl)NCNS2(=O)=O -13.1%
O=C(COc1ccc(F)cc1)OCc1cc(=O)n2nc(-c3cccs3)sc2n1 -14.6%
